The record followed here is the supplement of paper PMC11417369.

± gives the standard deviation of the averaged measurements. This is one part of the list.

The assay has as its system PfAP2-G AP2 domain (GST-tagged). Description: gcPBM binding intensity (ln(normalized median fluorescence intensity)); higher = stronger DNA binding. The method, boiled down: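 Plasmodium falciparum DNA-binding domains carrying a GST tag were expressed in E. coli and applied for 1 h, at about 25 μg on average, to an Agilent 4 × 180k array. The array held primer-extended double-stranded 36-bp intergenic genomic probes together with negative controls, and binding took place in 1× PBS with 1% milk, 0.2 mg/ml BSA, 0.5% salmon testes DNA and 0.03% Triton X-100. An Alexa488 anti-GST antibody detected bound protein, and the array was scanned at 488 nm. Binding intensity is taken as the highest Masliner-normalised natural-log median intensity across replicate spots of either probe orientation.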
In the case of “GAAAAAAAAAAAAAAAGTACATTCTCTATTTCATGT [XGTACX_site3209]”, the “gcPBM binding intensity (ln)” value was found to be 11.3 ± 0.91.
For the sequence “CGCGCACCCAGACACACACACACACCCATATATATA [CACACA_site2203]”, the “gcPBM binding intensity (ln)” value was determined as 10.3 ± 0.4.
For “ACGTATAATATGTACACACACATATATACCAAAAAA [CACACA_site4661]”, the “gcPBM binding intensity (ln)” value is 11.5 ± 1.
Next, “GATAAAATAATATATAGTACTTTTTTAAAATAAATA [XGTACX_site522]”: 11 ± 0.65; “TAATTACCATATGGTACACACATATTTATAGGTATA [CACACA_site7603]”: 11.2 ± 0.81; “ATTTACAAAAATTTTGTATAAAGGGATTTTAAAATG [TGCATGCA_negctrl_site350]”: 10.2 ± 0.14.
To “TATAAAACACACACACATATATATATATATTTATAT [TGCATGCA_negctrl_site48]” belongs 9.97 ± 0.16; to “AATTTTAAATTTAATTTACACACTTTTCATAGCATT [CACACA_site9264]”, 10.01 ± 0.064; to “AGATGCCAAGTATAAAGTACATATCAAAATGTATAT [XGTACX_site456]”, 11.1 ± 0.86.
Regarding “GAACAAAATTTTATATGTACATAATATTTATATATA [XGTACX_site3667]”, the “gcPBM binding intensity (ln)” value is 11.4 ± 0.8.
With “TATATATACACACACACATGCATGCCGATATATATA [TGCATGCA_site29]”, the “gcPBM binding intensity (ln)” value is 10 ± 0.16.
Consider “AAAAGATATTTGAATATACACACGATTTAAATTTAA [CACACA_site3865]”, for which the “gcPBM binding intensity (ln)” value is 9.8 ± 0.21.
“AAAGATTTAATCTATACATGCAAATATATAGAAAAG [TGCATGCA_site373]”: the “gcPBM binding intensity (ln)” value is 9.865 ± 0.021.
On to “AATAAAAATAGGAAATGTACACATATATATATATAT [XGTACX_site1853]”, for which the “gcPBM binding intensity (ln)” value stood at 11.2 ± 0.59.
To “TTATTTTATTTTTATACACACATGTTTTAATGTTCA [CACACA_site249]” belongs 9.9 ± 0.2; to “AAAACTTTTAAAATTTTGTATTCATTCCTTCAACAA [GTGCAC_negctrl_site697]”, 9.78 ± 0.11.
Next, “TTTATAATTCCATAATGTACAAATAAAATAAAAAAT [XGTACX_site663]”: 10.9 ± 0.47; “GTACAAAGGACTATACATAGAAAAATATATATATAT [XGTACX_negctrl_site164]”: 10.6 ± 0.33; “AGGAGGATAGTTCACAGTACCCAGTAACTCTACGAG [XGTACX_site2008]”: 10.7 ± 0.41.
“AAAATTAATGTTGGTTGTACAAAAATTAAATATGGT [XGTACX_site66]”: the “gcPBM binding intensity (ln)” value was determined as 11.3 ± 0.75.
To “ATATATATATAAATATGTACATATATTTATTTCTTT [XGTACX_site3784]” belongs 11.2 ± 0.76; to “GTGTGAGCACATTCGGGAGAGTTTTTTTTTTTTTTT [CACACA_negctrl_site1776]”, 10.4 ± 0.24; to “TATAAAAATAAGCACACACACAAATATAGATTTATT [CACACA_site6558]”, 10.
To “AAAGTATATAGGATACGTACATACATAAATAAATAA [XGTACX_site8216]” belongs 11.5 ± 0.83; to “GTACAAAATTGACAAGTGCAAAAATTAAAAGCAAGA [GTGCAC_site9838]”, 10.9 ± 0.5; to “TGACATATAAAATATTCACACACAAGTTATAGTTCT [CACACA_site9209]”, 9.74 ± 0.11.
Turning to “ACATTTTCTTATAAATGTACATATATATTATTATAT [XGTACX_site4404]”, the “gcPBM binding intensity (ln)” value was 11.1 ± 0.6.
In the case of “TATATTCAAAATGGTACACACAATATTTAATTGTGC [CACACA_site2631]”, the “gcPBM binding intensity (ln)” value worked out at 11.1 ± 0.8.
Turning to “ACAAGTATTAATTACACACTCAAAAAGAAAAAACAA [CACACA_site2281]”, the “gcPBM binding intensity (ln)” value was found to be 9.93 ± 0.028.
Next, “TTAATAGAAATACGTGCACACTAAAGGGAAAACAAT [CACACA_site4923]”: 10.7 ± 0.42.
“TGAATAAATATGCAGCGTACATAATCCTCTTAAAAT [XGTACX_site8462]”: the “gcPBM binding intensity (ln)” value amounted to 11.1 ± 0.74.
To “GTTAAATGAAAATATGTACACACTTGAAAATTTTTA [CACACA_site2924]” belongs 11.5 ± 0.82; to “ATATATTCTATATATACATGCATATATATTATATGT [TGCATGCA_site185]”, 9.84 ± 0.12; to ATGTATCCAATAGGAGTGCATAATTCTATTAACACC, 10.2 ± 0.18.
Consider “AAAGAAAAAAAAAAAAAAAAAAAAAAAATTATACAT [CACACA_negctrl_site7]”, for which the “gcPBM binding intensity (ln)” value was 9.36 ± 0.042.
On to “TATATAAAATAATAATGTACTCATTAAAATTATAGA [XGTACX_site4507]”, for which the “gcPBM binding intensity (ln)” value was determined as 11.1 ± 0.92.
For “AAAAATAACATATAAACACACATATATATATATATA [CACACA_site3802]”, the “gcPBM binding intensity (ln)” value was 9.9 ± 0.35.
In the case of “TACTTTATATTATATATATATATATATATATATATA [CACACA_negctrl_site1765]”, the “gcPBM binding intensity (ln)” value was 9.74 ± 0.39.
To “GAATTTCGATATATGTGTACGCATTTGTATTATAGG [XGTACX_site6332]” belongs 11.7 ± 1.1; to “TACATATTGCACAAATAAAAAAGAACAAAAAAAAAA [CACACA_negctrl_site1200]”, 10.1 ± 0.16; to “ATATATATATATATATGTACATATATTCGATTATTA [XGTACX_site557]”, 11.4 ± 0.85.
To “ATAATATTTCTTACCTTTGGATGTTCTAATTTTTTT [CACACA_negctrl_site1317]” belongs 9.995 ± 0.007.
Next, “AAAAAAAAAAAAAAATATAAATATATATATATATAT [GTGCAC_negctrl_site28]”: 9.77 ± 0.41; “TACATAAAATATATCACACATATAATATATATATAT [CACACA_site5834]”: 9.93 ± 0.42.
